{"source": "patent US20090226500A1", "about": "“SUTURES AND ANTI-SCARRING AGENTS” (Angiotech Pharmaceuticals, Inc, priority 2006, published 2009)", "system": "nitric oxide production by macrophages (murine macrophage cell line RAW 264.7)", "assay": "Nitric oxide production by macrophages", "type": "cell-based", "conditions": "RAW 264.7 cells stimulated with IFNγ and LPS, 24 hours"}
{"smiles": "COc1ccc(C[C@H]2NC[C@H](O)[C@H]2OC(C)=O)cc1", "note": "[anisomycin]", "values": [{"measurement": "IC50", "result": 68, "unit": "nM"}]}
